The campaign covered roughly 310,000 compounds. About 14,000 (4.5%) showed an effect of 50% or more. The effect is printed as a negative number. Some of the results follow.
These compounds were tested against human ether-à-go-go-related gene (hERG) potassium channel (human, UniProt Q12809) (assay: primary screen, population patch clamp on CHO cells stably expressing hERG).
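Note: peak tail current of the secondary pulse compared with the same well before compound.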

Sequence of human ether-à-go-go-related gene (hERG) potassium channel (Q12809 whole entry, looked up): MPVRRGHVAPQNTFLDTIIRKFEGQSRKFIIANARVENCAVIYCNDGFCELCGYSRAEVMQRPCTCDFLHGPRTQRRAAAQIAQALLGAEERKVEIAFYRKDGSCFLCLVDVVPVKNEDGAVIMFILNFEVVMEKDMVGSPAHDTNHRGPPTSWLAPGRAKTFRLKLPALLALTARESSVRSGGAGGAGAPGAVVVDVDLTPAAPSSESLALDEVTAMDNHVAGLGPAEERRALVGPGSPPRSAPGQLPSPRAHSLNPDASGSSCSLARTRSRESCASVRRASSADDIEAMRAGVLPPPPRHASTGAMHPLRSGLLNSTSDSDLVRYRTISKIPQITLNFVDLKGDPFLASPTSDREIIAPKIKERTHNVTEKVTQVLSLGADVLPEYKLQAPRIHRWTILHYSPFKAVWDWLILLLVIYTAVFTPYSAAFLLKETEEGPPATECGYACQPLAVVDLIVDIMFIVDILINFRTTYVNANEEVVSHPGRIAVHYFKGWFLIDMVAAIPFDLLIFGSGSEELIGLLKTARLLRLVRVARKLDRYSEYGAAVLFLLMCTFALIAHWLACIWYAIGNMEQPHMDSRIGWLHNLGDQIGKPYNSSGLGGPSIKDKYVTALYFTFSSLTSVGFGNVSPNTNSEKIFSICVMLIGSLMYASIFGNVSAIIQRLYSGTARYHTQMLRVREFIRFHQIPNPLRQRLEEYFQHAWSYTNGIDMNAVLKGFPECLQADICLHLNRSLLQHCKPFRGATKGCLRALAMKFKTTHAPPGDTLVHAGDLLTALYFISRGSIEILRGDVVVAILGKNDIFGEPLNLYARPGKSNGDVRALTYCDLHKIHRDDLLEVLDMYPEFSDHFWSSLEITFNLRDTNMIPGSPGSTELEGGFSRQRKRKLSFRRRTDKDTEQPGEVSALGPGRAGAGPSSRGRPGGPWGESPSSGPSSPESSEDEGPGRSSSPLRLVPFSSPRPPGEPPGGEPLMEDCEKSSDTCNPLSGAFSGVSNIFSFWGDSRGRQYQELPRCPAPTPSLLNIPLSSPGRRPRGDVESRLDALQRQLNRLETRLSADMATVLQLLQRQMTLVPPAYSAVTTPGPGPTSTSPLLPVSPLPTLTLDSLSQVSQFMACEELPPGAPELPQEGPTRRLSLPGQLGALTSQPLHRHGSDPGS

Row | SMILES | hERG current change (%, negative = inhibition) at 10uM [%]
1 | CC(=O)N1CCC2(CC1)NC(=O)N(c1ccccc1)N2 | -2.09
2 | CCCn1c(SCC(=O)Nc2ccccc2Oc2ccccc2)n[nH]c1=O | -17
3 | Cc1cc(Nc2ccc3c(c2)OCCO3)c2cccc(C)c2n1.Cl | -40.7
4 | O=C(COC(=O)C1(c2ccccc2)CC1)NNC(=O)c1ccccc1 | -2.39
5 | Oc1ccccc1C1=NN(c2ccccc2)C(c2ccc(F)cc2)C1 (centres unmarked) | 9.68
6 | Cc1ccc(CCNC(=O)C2CCC(=O)N(Cc3ccccc3F)C2)o1 (centres unmarked) | -10.9
7 | O=C(Nc1ccon1)Nc1ccccc1C(F)(F)F | 12.6
8 | Cn1c(CC(=O)Nc2ccccc2)nnc1SCCOc1ccccc1 | 2.08
9 | Cc1cc(C)n(CCc2nc(-c3cc4ccccc4o3)cs2)n1 | 6.68
10 | c1ccc(-c2cc3ccccc3nc2N2CCCC2)cc1 | 15.4
11 | Cc1cccc2sc(NC(=O)C3CCN(S(=O)(=O)c4cc([N+](=O)[O-])ccc4Cl)CC3)nc12 | -2.42
12 | CC1CC(=O)c2cnc(Nc3cccc(C(F)(F)F)c3)nc2C1 (centres unmarked) | 3.91
13 | CN1CCN(S(=O)(=O)c2ccc(NC(=O)c3cccc(F)c3)cc2)CC1 | 1.26
14 | CCOc1ccc(N(CC(=O)N2CCN(c3ccccc3F)CC2)S(=O)(=O)c2c(C)noc2C)cc1 | 11.4
15 | CC(=O)NCCCCCCNC(C)=O | 3.44
16 | Cn1c(=O)c(=O)n(C)c2cc(S(=O)(=O)N3CCN(Cc4ccccc4)CC3)ccc21 | -63.4
17 | COc1ccc(-c2nc(CN3CCC(C(=O)N4CCOCC4)CC3)c(C)o2)c(OC)c1 | 7.46
18 | CC(=O)c1cccc(NC(=O)c2ccc([N+](=O)[O-])o2)c1 | -28.7
19 | O=C(NNC(=O)C1[C@H]2CCCC[C@@H]12)c1ccc(=O)oc1 (some centres unmarked) | 17.7
20 | CCOc1cccc(/C(O)=C2/C(=O)C(=O)N(CCN3CCOCC3)C2c2cccnc2)c1 (centres unmarked) | 3.77
21 | CC(=O)c1ccc(N(C(=O)CNC(=O)c2ccco2)C(C(=O)NCC2CCCO2)c2ccccc2)cc1 (centres unmarked) | -1.08
22 | COc1ccc(CN(C)C(=O)c2cccc(C(=O)N(C)Cc3ccc(OC)cc3)c2)cc1 | -65.6

Row | SMILES | hERG current change (%, negative = inhibition) at 10uM [%]
23 | CC(=C\C(=O)O)/C(=C/c1ccc(C)o1)C(=O)O | -3.89
24 | Cc1ccc(NC(=O)c2sc3nc4c(c(-c5ccco5)c3c2N)CCC4)cc1 | 11.6
25 | CCOc1ccc(-c2[nH]nc3c2C(c2ccc(O)cc2)C(C#N)=C(N)O3)cc1 (centres unmarked) | 4.41
26 | CCOc1ccccc1C(=O)NCC(=O)NC(C)c1ccc(-n2ccnc2)cc1 (centres unmarked) | -70.9
27 | C[C@H](CCC(=O)NCC(=O)[O-])[C@H]1CC[C@H]2[C@@H]3[C@H](O)C[C@@H]4C[C@H](O)CC[C@]4(C)[C@H]3C[C@H](O)[C@]12C.O.[Na+] | -21.4
28 | COc1ccccc1NC1=NC(CO)(CO)CS1 | 19.7
29 | O=C(c1ccccc1NS(=O)(=O)c1cccs1)N1CCCC1 | 2.73
30 | COCCn1c(C)cc(C(=O)CSc2nc3nc(C)cc(C)n3n2)c1C | -10.5
31 | Cc1ccc(OCCOC(=O)Cn2nc(C)c([N+](=O)[O-])c2C)cc1 | 15.7
32 | Cc1[nH]c(C)c(S(=O)(=O)N2CCN(c3ccc(Cl)cc3)CC2)c1C(=O)N1CCCC1 | -66.4
33 | C#CCN(C#N)c1nc(NCC)nc(NC(C)C)n1 | -5.95
34 | COCCN(C(=O)CSc1nc2ccccc2o1)c1c(N)n(Cc2ccccc2)c(=O)[nH]c1=O | -14.6
35 | COc1ccc(NC(=O)[C@@]2(CC(=O)O)CC(/C=C/c3ccccc3)=NO2)cc1 | 34
36 | COc1cccc(C2c3c(oc4ccccc4c3=O)C(=O)N2c2ccccn2)c1 (centres unmarked) | -2.62
37 | CCCN1CCN(C2CCCCC2NS(=O)(=O)c2ccccc2)CC1 (centres unmarked) | -44.7
38 | CC(C)(C)N1NC2(CCCCC2)NC1=S | 9.17
39 | Cc1cc(C)n(-c2ccc(C(=O)OC(C)C)cc2)n1 | -8.17
40 | CC(C)C[C@H](NC(=O)c1nc[nH]c1C(=O)N1CCC(C)CC1)C(=O)OCc1ccccc1 | 8.25
41 | CCCCN1C(N)=NC[C@@H]1C(C)O (some centres unmarked) | 15.9
42 | NNC(=O)c1cc2cc3ccccc3nc2s1 | 1.41
43 | COc1ccc(NC(=S)NC2CCN(Cc3ccccc3)CC2)cc1OC | 70.7
44 | CNC(=O)c1cccc(NC(=O)C(C)c2ccc3cc(OC)ccc3c2)c1 (centres unmarked) | -7.49

Row | SMILES | hERG current change (%, negative = inhibition) at 10uM [%]
45 | COc1cc(CCC(=O)NCc2ccc(F)cc2)cc(OC)c1OC | 12.1
46 | CC1CCN(CCCNC(=O)c2n[nH]c(=O)c3ccccc23)CC1 | -3.17
47 | O=C(Nc1ccccc1Cl)c1ccccc1Oc1ccc(C(F)(F)F)cc1[N+](=O)[O-] | 6.26
48 | COc1ccc(NC(=O)c2sc(NC(=O)COc3ccccc3)nc2C)cc1 | 1.76
49 | Cc1cc(NC(=O)CCC(=O)N(c2ccc(F)cc2)C(C(=O)NC2CCCC2)c2ccccc2)no1 (centres unmarked) | 29.1
50 | CCn1nc(C(=O)NCc2ccco2)c(Cl)c1Cl | -9.51
51 | COCCCN(CC(=O)O)S(=O)(=O)c1ccccc1 | 42.2
52 | Cc1cc(C)nc(NC(=O)CCCC(=O)O)c1 | 12.1
53 | COc1ccc(/C=N/NC(=O)c2cccc(NC(C)=O)c2)c(OC)c1 | 9.99
54 | CS(=O)(=O)N(CC(=O)NCCSCc1ccccc1)c1ccc2c(c1)OCO2 | -10.6
55 | CCS(=O)(=O)N1CCN(C(=O)c2cc(OC)cc(OC)c2)CC1 | 1.51
56 | COc1ccc(NC(=O)c2cccc(Oc3ccc([N+](=O)[O-])cc3Cl)c2)cc1 | 14.2
57 | CCOC(=O)N1N=C(c2ccccc2)CC1(O)C(F)(F)F (centres unmarked) | 6.15
58 | CC(C)CNC(=S)NC(=O)c1ccc(Cl)cc1Cl | 3.88
59 | CS(=O)(=O)N(CC(=O)Nc1ccc2c(c1)OCO2)c1ccc(Cl)cc1 | -2.71
60 | O=C(c1ccccc1)N1N=C(c2ccc(F)cc2)CC1(O)C(F)(F)F (centres unmarked) | -5.31
61 | O=C(CCl)Nc1cc(S(=O)(=O)N2CCOCC2)ccc1N1CCOCC1 | 11.9
62 | CC(C)c1ccc(S(=O)(=O)N2CCN(C(=O)c3cccc(F)c3)CC2)cc1 | -15.4
63 | Nc1cnn(C2OC(CO)C(O)C2O)c(=O)n1 (centres unmarked) | 5.84
64 | COc1ccc(NC(=O)NC2CC3CCCC(C2)N3Cc2ccccc2)cc1 (centres unmarked) | -50.1
65 | COc1cc(CCCN2C(=O)C(=O)NC[C@@H]2Cc2ccc(O)cc2)cc(OC)c1OC | 21.6
66 | CCCC(=O)Nc1ccc(OCC(O)CNC(C)C)c(C(C)=O)c1.Cl (centres unmarked) | 3.34

Row | SMILES | hERG current change (%, negative = inhibition) at 10uM [%]
67 | CCOC(=O)N1CCN(C(=O)c2cn(C)c3ccc(S(=O)(=O)N4CCCC4)cc3c2=O)CC1 | 3.16
68 | CCOC(=O)c1[nH]c(C)c(C(=O)NCCc2ccc(OC)cc2)c1C | 12.6
69 | Cc1ccc2nc(N(CCCN(C)C)C(=O)c3cc(-c4cccs4)nc4ccccc34)sc2c1.Cl | -6.21
70 | O=C(Nc1ccc(F)c(Cl)c1)C1CC(=O)N(Cc2ccco2)C1 (centres unmarked) | -23.1
71 | CC(C)C[C@@]12C(=O)N(c3cccc(Br)c3)C(=O)N1[C@H](c1ccc(Cl)cc1)[C@@H]1C(=O)N(C3CCCCC3)C(=O)[C@@H]12 | -6.89
72 | Cc1csc(NC(=O)CSc2nncs2)n1 | 13.6
73 | COc1ccc(C(=O)N/C(=C/c2cccnc2)C(=O)NCc2ccco2)cc1OC | 9.12
74 | CCNC(=O)CSc1nc2sccc2c(=O)n1-c1ccccc1 | 5.62
75 | COc1cc(NC(=O)C2=C(N3CCOCC3)/C(=C\c3ccc(Cl)cc3Cl)CC2)cc(OC)c1OC | 3.81
76 | N#Cc1ccc(Oc2nc(Nc3ccc(F)cc3)nc(N3CCCC3)n2)cc1 | 1.63
77 | CC(C)N(C(=O)Nc1ccc2nsnc2c1)C(C)C | 0.592
78 | Nc1nonc1-n1nnc(C(=O)N/N=C/c2ccccc2)c1CSc1ccc(Cl)cc1 | -23.6
79 | O=C(NCc1ccccc1)c1ccc[nH+]c1.[Cl-] | 16.1
80 | Cc1ccc(-n2nc(C(=O)c3ccccc3)n3c(=O)c(Cc4ccccc4)nnc23)cc1 | -2.55
81 | COc1ccc(N2C(=O)C(Cl)=C(Nc3c(C)n(C)n(-c4ccccc4)c3=O)C2=O)cc1 | -8.05
82 | O=C(CCl)Nc1cc(-c2ccccc2)nn1-c1ccccc1 | -45.2
83 | CC(=O)Nc1nc(C)c(Oc2ccc(C)cc2)c(=O)[nH]1 | -1.03
84 | CCN(CC)S(=O)(=O)c1ccc(NC(=O)COC(=O)c2cnc(C)cn2)cc1 | -1.5
85 | CC1(C)CCc2cc(-c3ccnc(=S)[nH]3)ccc2O1 | 30.1
86 | Cc1csc(N/N=C/c2c(F)cccc2Cl)n1 | 17.8

From PMC4336329 (PLoS ONE, 2015)
